For this test, the system named is MRSA biofilms grown on catheters (strain ATCC BAA-42). As to the kind of experiment: Catheter biofilm eradication in vitro, methylene blue staining. To be noted: concentrations as high as 5000×MIC (5 mg/ml).

Each structure is given as a SMILES string.

Take `CCCCCCCCCC(=O)N[C@@H](Cc1c[nH]c2ccccc12)C(=O)N[C@H](CC(N)=O)C(=O)N[C@@H](CC(=O)O)C(=O)N[C@@H]1C(=O)NCC(=O)N[C@@H](CCCN)C(=O)N[C@@H](CC(=O)O)C(=O)N[C@H](C)C(=O)N[C@@H](CC(=O)O)C(=O)NCC(=O)N[C@H](CO)C(=O)N[C@@H]([C@H](C)CC(=O)O)C(=O)N[C@@H](CC(=O)c2ccccc2N)C(=O)O[C@@H]1C` [Daptomycin, daptomycin]: the “biofilm removal from the catheter” value is recorded as “did not remove the biofilm”.

(Values after patent US11524046B2, “Biofilm prevention, disruption and treatment with bacteriophage lysin” (priority 2012, dated 2022).)
